Measurements reported in patent US10017827B2, “Herbicide-resistant sunflower plants with multiple herbicide resistant alleles of AHASL1 and methods of use” (BASF AGROCHEMICAL PRODUCTS B.V., priority 2007, dated 2018).
Where two headings read alike, the source gives them in different places.

What was measured:
[1] = system: AHAS enzyme, A122T homozygous hybrid (cmsGM40 × R733); conditions: Set 1
[2] = system: AHAS enzyme, A122T homozygous (GM40); conditions: Set 2
[3] = system: AHAS enzyme, A122T heterozygous hybrid (cmsBTK47 × R731); conditions: Set 2

SMILES	AHAS activity, % of untreated control ([1]; 100 μM imazamox)	AHAS activity, % of untreated control ([2]; 50 μM imazamox)	AHAS activity, % of untreated control ([2]; 100 μM imazamox)	AHAS activity, % of untreated control ([3]; 50 μM imazamox)	AHAS activity, % of untreated control ([3]; 100 μM imazamox)	AHAS activity, % of untreated control ([1]; 100 μM imazapyr)
COCc1cnc(C2=NC(C)(C(C)C)C(=O)N2)c(C(=O)O)c1 (stereo not drawn) [imazamox]	69%	63%	60%	30%	30%	
CC(C)C1(C)N=C(c2ncccc2C(=O)O)NC1=O (stereo not drawn) [imazapyr]						64%
